Data from PubChem BioAssay AID1345082 (National Center for Advancing Translational Sciences (NCATS), 2018).
Values joined by “and” are separate entries in the source; they are usually repeats but may differ in a detail not shown here. Equal entries are not always repeated. Hit rate of the full screen: of about 94,000 compounds, about 4,000 (4.3%) were called active. This list was built around the results that the source calls inconclusive (neither active nor inactive); the mix of calls is not that of the screen. Calls come from the whole dose curve; as a rule, active = well fitted inhibition curve with a large enough effect; inconclusive = small, poorly fitted or top-dose-only effect; inactive = no such curve, though single readings can be large or run the other way. Where the call is inconclusive, the potency comes from a doubtful curve fit.

Assay: Cytotoxic Profiling in NIH 3T3 Cell Line of Diverse Libraries Using Quantitative High-Throughput Screening; note: nearly all actives have a fitted effect of over 55% in size
Settings: NIH 3T3 viability, CellTiter-Glo ATP luminescence, 48-72 h; series mostly up to 96.7 µM
Method in brief: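 Viability of NIH 3T3 cells after 48 or 72 hr compound treatment at 37 °C was assessed by CellTiter-Glo, with luminescence imaged following a 10 min room-temperature step.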
Potency is the fitted concentration of half-maximal effect; tags give direction and shape of the fitted curve.

SMILES | Potency
CC(C)C[C@@H]1N[C@H](C(=O)O)Cc2cn(Cc3ccncc3)c3cccc1c23 | inactive
O=C(c1cccc(F)c1)N1CCN2C(=O)N(C3CCCCC3)C(=O)[C@@H]2C1 | inconclusive: 35.5 µM [inhibitor, full curve, poor fit]
Cc1nnn2c(C(=O)N(C)C)cccc12 | inactive
Cc1ccc(S(=O)(=O)N2CCCC(CCC(=O)NCc3cccc(F)c3)C2)cc1 (centres undefined) | inconclusive: 70.8 µM [inhibitor, single point]
Cc1ccc(-c2nnc([C@H]3CCN(c4nccc(C(F)(F)F)n4)C3)o2)cc1 | inconclusive: 56.2 µM [inhibitor, full curve, poor fit]
CNC(=O)[C@@H]1C[C@H](n2cc(C(C)(C)NC(=O)c3cc(F)ccc3C)nn2)CN1 | inactive
O=C(c1ccc(F)cc1)N1CCCC(c2nn(-c3ccc(F)cc3)c(=O)[nH]2)C1 (centres undefined) | inconclusive: 50.1 µM [inhibitor, partial curve, poor fit]
O=C(c1ccc2c(c1)OCO2)N1CC(Oc2ccc(F)cc2F)C1 | inconclusive: 89.1 µM [inhibitor, single point]
Cc1noc([C@@H]2CN(C(=O)c3ccoc3C)C[C@H]2C(N)=O)n1 | inactive
O=C(N[C@@H]1CN(C(=O)Nc2ccccc2)CCC[C@H]1O)c1ccc(OCc2ccccc2)cc1 | inconclusive: 79.4 µM [inhibitor, partial curve, poor fit]
Cc1ccc(-c2noc([C@@H]3C[C@@H](O)CN3C3CCN(C)CC3)n2)cc1F | inconclusive: 126 µM [inhibitor, single point]
O=C(NC[C@H]1OC[C@@H](NCc2ccccc2O)[C@@H]1O)C1CCCC1 | inactive
Oc1ccc(-c2nc(C3CC3)nc3c2CCN(Cc2cccc4ccccc24)CC3)cc1 | inconclusive: 44.7 µM [inhibitor, partial curve, poor fit]
COCCNC(=O)[C@H]1C[C@H](Oc2cccnc2)CN1C(=O)Cc1c(C)noc1C | inactive
CCCCn1c(CNC(=O)OC(C)(C)C)nc2cccnc21 | inconclusive: 79.4 µM [inhibitor, partial curve, poor fit] and inconclusive: 89.1 µM [inhibitor, partial curve, poor fit]
CCC(C)NC(=O)Cc1csc2nc(C)c(-c3cc(C)n(-c4ccc(C(C)C)cc4)n3)c(=O)n12 (centres undefined) | inactive
COc1ccc(CN2C[C@@H]3C(=O)N(Cc4ccc5c(c4)OCO5)C(=O)[C@@H]3C2)c(OC)c1 | inactive
O=C1c2cnc(-c3cccc(F)c3)nc2OCCN1c1ccccc1 | inconclusive: 89.1 µM [inhibitor, partial curve]
Cc1cc(C)cc(Nc2nc(C)cc(=O)n2CC(=O)Nc2cccc(C(F)(F)F)c2)c1 | inconclusive: 2.82 µM [inhibitor, full curve, poor fit]
Cc1cccc(OCC(=O)N2CCC(n3cc(-c4nc(-c5ccccc5)no4)nn3)C2)c1 (centres undefined) | active: 12.6 µM
COC(C)c1nc(C2CCOCC2)nn1Cc1ccc2c(c1)OCO2 (centres undefined) | inactive
O=C1CCC2(CCN1Cc1ccccc1)CCN(S(=O)(=O)c1cccs1)CC2 | inconclusive: 44.7 µM [inhibitor, partial curve, poor fit]

SMILES | Potency
CC1(C)[C@H]2CC[C@@H](CNC(=O)N3CCCC3)[C@@H]1C2 | inconclusive: 70.8 µM [inhibitor, partial curve]
COC[C@@H]1CN(c2cnccn2)C[C@H]1C(=O)NCc1c(C)n[nH]c1C | inactive
COc1cccc(N2CC(C(=O)N3CCC(C(=O)NCc4cccc(F)c4)C3)NC2=O)c1 (centres undefined) | inactive
COc1ccc(-c2nc3c(c(=O)[nH]2)CCN(C(=O)c2ccccc2)C3)cc1 | inactive
O=C(NC1C[C@H]2CC[C@@H](C1)N2C(=O)C1CCCCCC1)c1ccc(F)cc1 (some centres undefined) | inactive
COc1ccc(CCC(=O)Nc2cccc(-c3nnc4n3CCCC4)c2)cc1 | inactive
COCCCn1c(=O)c(C(=O)N2CCN(C(=O)C3CCCC3)CC2)nc2cccnc21 | inactive
COC(=O)c1ccc2nc(CO[C@H]3CN(C4CCC4)C[C@H]3F)[nH]c2c1 | inconclusive: 112 µM [inhibitor, single point]
Cc1noc(C)c1[S+](=O)([O-])N1CCn2c(nn(-c3ccc(C(F)(F)F)cc3)c2=O)C1 | inactive
COc1cc(F)ccc1-c1cn(C)c(=O)n2cc(CN3CCOCC3)nc12 | active: 112 µM
O=C(Nc1ccc(C2(C(=O)NCc3cccc(Cl)c3)CCC2)cc1)C1CC1 | inconclusive: 44.7 µM [inhibitor, partial curve, poor fit]
COCc1nc(C2CCN(C(=O)c3ccco3)C2)no1 (centres undefined) | inactive
CCCN1CCC2(CCN(C(=O)c3ccc(C)cc3)CC2)Oc2ccccc21 | inconclusive: 50.1 µM [inhibitor, partial curve, poor fit]
Cn1nc(C(=O)N2CCC3(CC2)CC(Cc2nc(C4CC4)no2)CCO3)c2ccccc21 (centres undefined) | inconclusive: 44.7 µM [inhibitor, partial curve, poor fit]
Cc1nn(-c2ccccc2)c2c1C(C(C)C)N(C1CCN(C(=O)Nc3ccccc3)C1)C2=O (centres undefined) | inconclusive: 50.1 µM [inhibitor, partial curve, poor fit]
CC#CCn1cc2c3c(cccc31)[C@H](CC(C)C)N[C@H](C(=O)NCCOC)C2 | inconclusive: 50.1 µM [inhibitor, partial curve, poor fit]
COc1ccc(-c2noc(CC3CCN(C(=O)Cc4ccccc4)CC3)n2)cc1 | inconclusive: 44.7 µM [inhibitor, partial curve, poor fit]
COc1cccc(-c2ncc3c(n2)OCCN(Cc2ccc(F)cc2F)C3=O)c1OC | inconclusive: 50.1 µM [inhibitor, partial curve]
Cc1ccc(-c2ccc3nnc(CNC(=O)c4ccc[nH]4)n3n2)cc1C | inconclusive: 44.7 µM [inhibitor, partial curve, poor fit]
C=CCC1(CO)CCCN(C(=O)c2cccc(N3CCNC3=O)c2)C1 (centres undefined) | inactive
CC(C)NC(=O)Nc1ccc([C@H]2OCC(=O)N(Cc3cccnc3)[C@@H]2CO)cc1 | inactive
O=C(CC1=C2CCCCC2N(Cc2ccccc2)C1=O)NCCc1c[nH]c2ccccc12 (centres undefined) | inconclusive: 44.7 µM [inhibitor, partial curve, poor fit]

SMILES | Potency
O=C1NC2(CCCN(C(=O)c3ccccc3F)C2)Oc2ccccc21 (centres undefined) | inconclusive: 112 µM [inhibitor, partial curve, poor fit]
CC(C)c1ccc(CN2CCCC(O)(CN3CCSCC3)C2=O)cc1 (centres undefined) | inconclusive: 44.7 µM [inhibitor, partial curve, poor fit]
Cc1ccc(CNC(=O)N2CC[C@H]3C(=O)NCCCCCN(Cc4cccnc4)[C@@H]3C2)cc1 | inactive
O=C(NCc1cccc(C(F)(F)F)c1)C1CCc2nnc(C3CCN([S+](=O)([O-])c4ccccc4Cl)CC3)n21 (centres undefined) | inconclusive: 44.7 µM [inhibitor, partial curve, poor fit]
O=C(C1CCCC1)N1CCC(CCOc2ccccc2F)C1 (centres undefined) | inconclusive: 50.1 µM [inhibitor, partial curve, poor fit]
O=C1Cc2c(-c3cccc(CO)c3)n[nH]c2CN1Cc1ccccc1F | inconclusive: 44.7 µM [inhibitor, partial curve]
COc1ccc(CC(=O)Nc2ccc3ncnc(N4CCCCC4)c3c2)c(Cl)c1 | inconclusive: 39.8 µM [inhibitor, partial curve, poor fit]
O=C(Nc1ccccc1)Nc1ccc([C@@H](O)[C@H]2COCC(=O)N2CC2CC2)cc1 | inconclusive: 89.1 µM [inhibitor, partial curve, poor fit]
O=C1NCC2(CCN([S+](=O)([O-])c3cccs3)CC2)Oc2ccccc21 | inconclusive: 50.1 µM [inhibitor, partial curve, poor fit]
Cc1nc(N2CCCCC2)n(CC(=O)Nc2cccc(F)c2)c(=O)c1C | inactive
Cc1ccccc1-c1nc(Cn2ccnc2C(C)C)c(C)o1 | inconclusive: 56.2 µM [inhibitor, partial curve, poor fit]
COc1ccc(CCCNC(=O)c2ccc(N3CCC(N(C)C)C3)nc2)cc1 (centres undefined) | inactive
O=C(Nc1ccc(Cl)cc1)c1nc2c(o1)CCN(Cc1ccccc1)CC2 | inconclusive: 56.2 µM [inhibitor, partial curve, poor fit]
CCN1c2cc(C(=O)Nc3ccc(OC)c(Cl)c3)ccc2C(=O)N2CCCCC21 (centres undefined) | active: 22.4 µM
CC(=O)Nc1ccc(CN2C(=O)OC3(CCN(C(=O)c4scnc4C)CC3)C2(C)c2ccccc2)cc1 (centres undefined) | inconclusive: 39.8 µM [inhibitor, partial curve]
CCN(CC)C(=O)CC[C@@H]1CNC(=O)[C@@H]2C[C@H](NCc3cccs3)CN12 | inconclusive: 89.1 µM [inhibitor, partial curve, poor fit]
COc1cccc(C(=O)N2CC3(Cc4ccccc4CN3[S+](C)(=O)[O-])C2)c1 | inactive
C=CCn1cc(CN2CCOc3c(O)cc(-c4cccc(Cl)c4)cc3C2)cn1 | inconclusive: 50.1 µM [inhibitor, partial curve, poor fit]
CC1(C)C(=O)N(CC2CCOCC2)[C@H]2CN(Cc3cccnc3N)C[C@H]2[S+]1(=O)[O-] | inconclusive: 112 µM [inhibitor, single point]
O=C(c1cc(-c2ccccc2F)cc2c1OCCN2Cc1cccnc1)N1CCC1 | inconclusive: 89.1 µM [inhibitor, partial curve]
